The target in the test is LRBA PH-Myc (human LRBA PH-BEACH domain with a Myc tag) (human, UniProt P50851 2076-2489). Put plainly: co-IP.

B1: WT CTLA4-Flag (receptor)
chain: not shown
Take B1: the binding result is on record as “binds”.

These data come from article PMC12815959 (Nature Communications, 2025).
